The text below walks through data of PubChem BioAssay AID1159614 (National Center for Advancing Translational Sciences (NCATS), 2016).

Each structure is given as a SMILES string. Among all 45,000 compounds or so, about 65 (0.1%) were called active. Calls come from the whole dose curve; as a rule, active = well fitted activation curve with a large enough effect; inconclusive = small, poorly fitted or top-dose-only effect; inactive = no such curve, though single readings can be large or run the other way. The list shows a part of the results.

The target of the assay is Galactocerebrosidase (Homo sapiens) (UniProt P54803). The assay is described as follows: A Novel Cell-Based Assay to Identify Small Molecules for B -Galactocerebrosidase. Note: 0% is about no effect; nearly all actives have a fitted effect of over 65% in size. Conditions: 145M-Twi-hGALC-G270D cells, HMU-beta-Gal fluorescence, 48 h; series mostly up to 57.5 µM; activation: at the top concentration. In short, it runs like this: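 qHTS, 1536-well; 145M-Twi-hGALC-G270D cells (WT line also made) in DMEM/F12 + 10% FBS; compound incubation on live cells; HMU-β-gal 0.1 mM final, pH 5.2, NaTC; carbonate stop; fluorescence increase = enhanced residual activity.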
UniProt P54803, sequence (P54803 whole entry, looked up): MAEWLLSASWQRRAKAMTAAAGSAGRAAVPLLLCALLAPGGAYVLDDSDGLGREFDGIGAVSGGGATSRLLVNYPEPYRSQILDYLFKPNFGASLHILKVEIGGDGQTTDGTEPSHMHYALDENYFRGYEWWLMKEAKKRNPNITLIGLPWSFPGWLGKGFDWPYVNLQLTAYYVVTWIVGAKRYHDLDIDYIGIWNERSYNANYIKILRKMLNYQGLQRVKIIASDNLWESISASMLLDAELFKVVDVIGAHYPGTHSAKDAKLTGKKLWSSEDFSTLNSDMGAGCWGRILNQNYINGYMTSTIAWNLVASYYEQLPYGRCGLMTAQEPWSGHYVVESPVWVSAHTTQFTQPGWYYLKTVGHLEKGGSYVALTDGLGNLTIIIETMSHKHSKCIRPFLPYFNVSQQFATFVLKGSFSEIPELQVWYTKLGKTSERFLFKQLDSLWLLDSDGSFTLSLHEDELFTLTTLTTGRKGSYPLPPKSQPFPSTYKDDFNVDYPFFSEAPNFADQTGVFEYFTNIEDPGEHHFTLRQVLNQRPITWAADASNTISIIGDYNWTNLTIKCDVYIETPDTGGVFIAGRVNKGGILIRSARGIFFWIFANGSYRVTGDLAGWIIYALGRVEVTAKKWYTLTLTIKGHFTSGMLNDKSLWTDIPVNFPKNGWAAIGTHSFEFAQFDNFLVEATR
As for `COc1ccc(S(=O)(=O)Nc2ccc(O)c(Sc3nc4ccccc4s3)c2)cc1`, the “activation” value was inactive: 0.14%.

As to `CCCC(=O)NC1CC(=O)N(c2ccc3c(c2)OCCO3)C1` (configuration not stated), the “activation” value was inactive: -16.6%.

Consider `O=C(Nc1cccc(C(=O)OCc2cc(=O)n3nc(C4CC4)sc3n2)c1)c1ccc(F)cc1`, for which the “activation” value is inactive: -13.7%.

As to `CC(=O)c1ccc(S(=O)(=O)N2CCC(Oc3ccc(-n4cnnn4)cc3)CC2)cc1`, the “activation” value was inactive: -2.6%.

`COc1ccccc1C1C(C(N)=O)=C(C)Nc2nc(SCc3ccccc3F)nn21` (configuration not stated): the “activation” value is inactive: -8.42%.

Consider `Cc1c(C(=O)N(C)C)sc2c1c(=O)n(-c1ccc(Cl)c(Cl)c1)c(=O)n2Cc1ccc(F)cc1`, for which the “activation” value is inactive: -9.52%.

`O=c1c(-c2ccc(O)cc2)coc2cc(O)cc(O)c12`: the “activation” value is inactive: -14%.

For `COc1ccc(NC(=O)CCS(=O)(=O)c2cc(Br)cc3c2N(C(C)=O)CC3)c(OC)c1`, the “activation” value was inactive: -9.51%.

For the compound `CCOc1ccccc1NC(=O)c1ccc2oc(=O)c(S(=O)(=O)c3ccc(F)cc3)cc2c1`, the “activation” value is inactive: -17.9%.

Take `CN(C(=O)CSc1nc2ccc(NC(=O)c3ccc(F)cc3)cc2s1)c1ccccc1`: the “activation” value is inactive: -36.5%.

For the compound `Cc1cccc(N2CCN(C(=O)Cn3nc(C)c4sc5ccccc5c4c3=O)CC2C)c1` (configuration not stated), the “activation” value was inactive: -9.47%.

In the case of `CCn1cc(C(=O)N(C)Cc2ccccc2)c(=O)c2cc(S(=O)(=O)N3CCCCC3)ccc21`, the “activation” value was inactive: -20.8%.

Consider `COc1ccc(-c2onc(C)c2C)cc1S(=O)(=O)NC1CCCCC1`, for which the “activation” value was inactive: 4.82%.

In the case of `CCOC(=O)Nc1ccc2c(c1)N(C(=O)CCN1CCOCC1)c1ccccc1S2`, the “activation” value is inactive: -8.73%.

`CSc1ccc(Nc2nn(-c3ccc(OC(F)(F)F)cc3)nc2C(C)=O)cc1`: the “activation” value was inactive: -7.88%.

`Cc1c(C(=O)N2CCOCC2)oc2c1-c1nn(CC(=O)NCc3ccccc3)cc1CC2`: the “activation” value is inactive: 0.92%.

For the compound `Cn1c(=O)n(C)c2cc(CNCc3ccc(C(=O)O)cc3)ccc21`, the “activation” value was inactive: 4.3%.

In the case of `CCOC(=O)c1cccc(NC(=O)CCc2c(C)nc3c4cccnc4nn3c2C)c1`, the “activation” value is inactive: -18.2%.

`CCOC(=O)Cn1nc(N2CCN(c3ccc(F)cc3)CC2)ccc1=O`: the “activation” value is inactive: -18%.

Take `Cc1ccc(CN2C(=O)C3(SCC(=O)N3c3ccc(C)c(C)c3)c3ccccc32)cc1` (configuration not stated): the “activation” value is inactive: -29.3%.

As for `COC(=O)C1=C(c2ccccc2)c2ccccc2S(=O)(=O)N1CC(=O)Nc1cc(C)ccc1C`, the “activation” value was inactive: -4.99%.

Turning to `Cc1cccc(N2CCN(c3c(CN4CCCC4)c(=O)oc4ccccc34)CC2)c1C`, the “activation” value is inactive: -13.2%.

`Cc1ccc2c(c1)N(CC(=O)NCc1cccc(Cl)c1)C(=O)c1cccnc1O2`: the “activation” value was inactive: 8.98%.

For the compound `COc1ccccc1Cn1c(CNS(=O)(=O)c2c(C)cc(C)cc2C)nc2cccnc21`, the “activation” value was inactive: -31.6%.

On to `CCOCCn1ccc2c(OCC(=O)Nc3cc(C(F)(F)F)ccc3Cl)cccc2c1=O`, for which the “activation” value is inactive: -3.69%.

As to `CCOc1ccc(CCNC(=O)c2cc3cc4ccc(OC)cc4nc3s2)cc1OCC`, the “activation” value is inactive: -13.7%.

For the compound `O=C(CSc1c2c(nc3ccc(Cl)cc13)CCCC2)N1CCCCC1`, the “activation” value is inactive: -9.74%.

Consider `Cc1ccccc1OCC(=O)Nc1ccc(S(=O)(=O)Nc2ncccn2)cc1`, for which the “activation” value is inactive: -11.4%.

In the case of `CC(=O)c1cccc(NC(=O)c2ccc3c(c2)CCN3S(=O)(=O)c2ccccc2)c1`, the “activation” value is inactive: -30.7%.

Turning to `CCOCCCn1c(=N)c(S(=O)(=O)c2ccccc2)cc2c(=O)n3cc(C)ccc3nc21`, the “activation” value was inactive: -12.8%.

Regarding `Cc1ccc(-n2nc(C)c3c(C)c(CCC(=O)NCc4cccc(Cl)c4)c(C)nc32)cc1C`, the “activation” value was inactive: 5.69%.

As for `CCn1cc(S(=O)(=O)c2ccccc2)c(=O)c2cc(F)c(N3CCCCCC3)cc21`, the “activation” value is inactive: -7.91%.

With `COc1ccc(-c2nc(C)c(CCNC(=O)c3cccc(C)c3)s2)cc1OC`, the “activation” value was inactive: -10.7%.

Take `CCC12CN3CC(C)(CN(C1)C3c1c(C)[nH]c3ccccc13)C2=O` (configuration not stated): the “activation” value was inactive: -2.65%.

In the case of `CCOc1ccc(C2C(C(=O)Nc3ccc(C)cc3C)=C(C)Nc3c(C(=O)Nc4ccc(C)cc4)cnn32)cc1OC` (configuration not stated), the “activation” value is inactive: -11.7%.

Take `COc1ccc(CCNC(=O)C(C)n2nc(C)c3sc4ccccc4c3c2=O)cc1OC` (configuration not stated): the “activation” value is inactive: -16.1%.

As for `COc1ccc(-c2nc3c(C#N)c[nH]n3c2NC2CCCCC2)cc1`, the “activation” value was inactive: 20%.

For `COc1ccc(C2NC(=O)N(C)C3=C2C(=O)N(c2ccccc2)C3)cc1` (configuration not stated), the “activation” value is inactive: 2.4%.

In the case of `Nc1c2c(nc3c1CCC3)CCCC2`, the “activation” value is inactive: -7.31%.

For `COc1ccc(C(=O)Oc2c(Sc3ccc(C)cc3)c(C)nn2C(C)(C)C)c(OC)c1`, the “activation” value is inactive: -15.6%.

Turning to `C=Cc1ccc(Cn2c(C(=O)O)c(CNCc3cc(OC)ccc3OC)c3ccc(C)cc32)cc1`, the “activation” value is inactive: -14.6%.

Take `COCCNC(=O)C(=O)Nc1ccc2nc3n(c(=O)c2c1)CCCCC3`: the “activation” value was inactive: -5.44%.

Take `COC(=O)[C@H]1[C@H]2C[C@@H]3c4[nH]c5cc(OC)ccc5c4CCN3C[C@H]2C[C@@H](OC(=O)c2cc(OC)c(OC)c(OC)c2)[C@@H]1OC`: the “activation” value was inactive: -11.1%.

For `COc1cccc(C2=CC(c3ccccc3F)n3ncc(C(=O)Nc4ccc(F)cc4)c3N2)c1` (configuration not stated), the “activation” value is inactive: -20%.

In the case of `Cc1ccc(Nc2c(-c3cccnc3)nc3ccc(C)cn23)cc1`, the “activation” value is inactive: -21.8%.

In the case of `COc1ccccc1C(=O)NC1(C(F)(F)F)NC(=O)N(CCc2ccccc2)C1=O` (configuration not stated), the “activation” value was inactive: -8.42%.

With `O=C(CSc1nnc2scc(-c3ccc(Cl)cc3)n12)Nc1ccc(F)cc1`, the “activation” value is inactive: -23.2%.
